Experimental data reported in PMC10516938, “Conformational dynamics of cohesin/Scc2 loading complex are regulated by Smc3 acetylation and ATP binding” (Nature Communications, 2023).
No constants are given. Whether binding was seen depends on the method and setting. Binding seen in cells or lysates may run through a third protein. Some entries that bind do so weakly or less than the wild type.

Key:
[1] = biological target: T1, Smc3 K1004C (S. cerevisiae) (UniProt P47037); assay: cross-linking; in vivo BMOE cross-link of cysteine pairs in exponentially grown yeast cells (on ice, 6 min); Scc1-PK immunoprecipitated, western blot
T1 sequence: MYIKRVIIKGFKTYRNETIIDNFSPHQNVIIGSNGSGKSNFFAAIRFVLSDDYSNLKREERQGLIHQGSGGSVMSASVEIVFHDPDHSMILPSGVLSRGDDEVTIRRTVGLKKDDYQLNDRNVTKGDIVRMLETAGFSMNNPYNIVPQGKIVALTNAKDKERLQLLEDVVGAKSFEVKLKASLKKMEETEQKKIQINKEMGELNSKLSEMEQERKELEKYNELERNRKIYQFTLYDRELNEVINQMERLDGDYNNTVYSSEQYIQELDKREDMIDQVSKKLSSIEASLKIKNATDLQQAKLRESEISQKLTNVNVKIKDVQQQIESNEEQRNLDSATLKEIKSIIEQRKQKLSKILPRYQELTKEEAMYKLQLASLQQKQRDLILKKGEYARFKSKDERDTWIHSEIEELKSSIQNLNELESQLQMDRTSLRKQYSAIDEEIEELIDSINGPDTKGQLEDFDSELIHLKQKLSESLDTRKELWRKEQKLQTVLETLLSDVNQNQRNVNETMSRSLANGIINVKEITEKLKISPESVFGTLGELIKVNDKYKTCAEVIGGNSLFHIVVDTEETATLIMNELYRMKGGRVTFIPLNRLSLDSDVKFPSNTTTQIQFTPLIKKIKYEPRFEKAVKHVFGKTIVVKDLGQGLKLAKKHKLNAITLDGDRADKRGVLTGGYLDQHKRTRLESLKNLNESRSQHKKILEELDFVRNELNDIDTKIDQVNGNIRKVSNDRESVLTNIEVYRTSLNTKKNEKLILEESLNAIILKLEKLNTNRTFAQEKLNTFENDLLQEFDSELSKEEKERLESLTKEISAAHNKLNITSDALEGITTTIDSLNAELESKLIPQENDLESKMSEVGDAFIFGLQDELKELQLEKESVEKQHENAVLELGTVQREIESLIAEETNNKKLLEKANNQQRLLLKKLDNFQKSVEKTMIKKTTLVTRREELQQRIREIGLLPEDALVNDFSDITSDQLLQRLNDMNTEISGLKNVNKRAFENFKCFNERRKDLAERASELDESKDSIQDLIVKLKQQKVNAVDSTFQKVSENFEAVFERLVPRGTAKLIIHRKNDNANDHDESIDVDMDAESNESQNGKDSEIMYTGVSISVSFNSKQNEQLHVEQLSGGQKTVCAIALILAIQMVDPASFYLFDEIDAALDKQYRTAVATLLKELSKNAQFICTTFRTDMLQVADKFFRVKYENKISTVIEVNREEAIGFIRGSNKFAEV

[2] = biological target: T1, Smc3 K1004C (S. cerevisiae); assay: cross-linking; in vivo BMOE cross-link of cysteine pairs in yeast cells arrested in late G1 by non-degradable Sic1(9m); Scc1-PK immunoprecipitated, western blot, band intensities quantified

- binding [1]: binds
- binding [2]: binds
B1: Scc2 D369C (natural protein, S. cerevisiae, UniProt Q04002 1-1493, looked up)
chain: MSYPGKDKNIPGRIIEALEDLPLSYLVPKDGLAALVNAPMRVSLPFDKTIFTSADDGRDVNINVLGTANSTTSSIKNEAEKERLVFKRPSNFTSSANSVDYVPTNFLEGLSPLAQSVLSTHKGLNDSINIEKKSEIVSRPEAKHKLESVTSNAGNLSFNDNSSNKKTKTSTGVTMTQANLAEQYLNDLKNILDIVGFDQNSAEIGNIEYWLQLPNKKFVLTTNCLTKLQMTIKNITDNPQLSNSIEITWLLRLLDVMVCNIKFSKSSLKMGLDDSMLRYIALLSTIVLFNIFLLGKNDSNLHRESYIMEPVNFLSDLIESLKILTIEYGSLKIEFDTFQEALELLPKYIRNGPFLDDNVTAKLVYIFSCLLMNNDIEATTNIQFQSFWDNVKRISSDILVSLFGSFDQQRGFIIEELLSHIEKLPTKRIQKKLRKVGNQNIYITDFTFTLMSMLENINCYSFCNQMKDIAPENIDLLKNEYKKQEEFLFNIVEHINDTILERFFKNPSALRYVIDNFVQDLLLLISSPQWPVTEKILSSLLKRLLSVYSPSMQVSANIETICLQLIGNIGSTIFDIKCSTRDHEDNNLIKMINYPETLPHFFKSFEECIAYNETIKCRRSATRFLWNLRLGTILILEEYTKDAKEQIITVDNELKKILEQIKDGGLGPELENREADFSTIKLDYFSILHAFELLNLYDPYLKLILSLLAKDKIKLRSTAIKCLSMLASKDKVILSNPMVKETIHRRLNDSSASVKDAILDLVSINSSYFEFYQQINNNYNDDSIMVRKHVLRINEKMYDETNDIVTKVYVIARILMKIEDEEDNIIDMARLILLNRWILKVHEVLDQPEKLKEISSSVLLVMSRVAIMNEKCSQLFDLFLNFYLLNKEAHSKEAYDKITHVLTILTDFLVQKIVELNSDDTNEKNSIVDKQNFLNLLAKFADSTVSFLTKDHITALYPYMVSDEKSDFHYYILQVFRCTFEKLANFKQKFLYDLETTLLSRLPKMNVREIDEAMPLIWSVATHRHDTARVAKACSSCLSHLHPYINKANNEEAAIVVDGKLQRLIYLSTGFARFCFPKPSNDKIAFLQEGETLYEHITKCLLVLSKDKITHVIRRVAVKNLTKLCGNHPKLFNSRHVLHLLDKEFQSDQLDIKLVILESLYDLFLLEERKSVRNTGVNSTLSSNSILKKKLLKTNRVEFANDGVCSALATRFLDNILQLCLLRDLKNSLVAIRLLKLILKFGYTNPSHSIPTVIALFASTSQYIRHVAYELLEDLFEKYETLVFSSLSRGVTKAIHYSIHTDEKYYYKHDHFLSLLEKLCGTGKKNGPKFFKVLKRIMQSYLDDITDLTSTNSSVQKSIFVLCTNISNITFVSQYDLVSLLKTIDLTTDRLKEVIMDEIGDNVSSLSVSEEKLSGIILIQLSLQDLGTYLLHLYGLRDDVLLLDIVEESELKNKQLPAKKPDISKFSAQLENIEQYSSNGKLLTYFRKHVKDT
notes: Scc2, S. cerevisiae; source: S. cerevisiae W303, in vivo, whole-cell extract
